# Some of the results follow.
# B1: MGL6A (Homo sapiens) (protein)
# chain: MTRTYENFQYLENKVKVQGFKNGPLPLQSLLQRLCSGPCHLLLSLGLGLLLLVIICVVGFQNSKFQRDLVTLRTDFSNFTSNTVAEIQALTSQGSSLEETIASLKAEVEGFKQERQAVHSEMLLRVQQLVQDLKKLTCQVATLNNNGEEASTEGTCCPVNWVEHQDSCYWFSHSGMSWAEAEKYCQLKNAHLVVINSREEQNFVQKYLGSAYTWMGLSDPEGAWKWVDGTDYATGFQNWKPGQPDDWQGHGLGGGEDCAHFTPDGRWNDDVCQRPYHWVCEAGLGQTSQESH
# How the values were obtained:
# Experiment in all cases: glycan array binding signal (z-score within array); higher = stronger binding
# Settings in all cases: glycan notation: IUPAC condensed, linker removed; mutation: H262T
# Neu5Ac(a2-6)Gal = biological target: Neu5Ac(a2-6)Gal
# Outline: (§1)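 Glycan array data came from 3228 arrays in the Consortium for Functional Glycomics database, and only arrays with an available protein sequence were kept. Glycan names were put into IUPAC-condensed notation, and columns mapping to the same glycan were averaged. The binding signal is a within-array Z-score, averaged across arrays of one protein sequence run at different concentrations or buffers and across linkers. A negative Z-score can be read as non-binding.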
# [1] = biological target: Neu5Ac(a2-6)Gal(b1-3)GlcNAc(b1-3)[Gal(b1-4)GlcNAc(b1-6)]Gal(b1-4)Glc
# Outline: as §1
# Neu5Ac(a2-6)Gal(b1-4)Glc = biological target: Neu5Ac(a2-6)Gal(b1-4)Glc
# Outline: as §1
# [2] = biological target: Neu5Ac(a2-6)Gal(b1-4)GlcNAc
# Outline: as §1
# [3] = biological target: Neu5Ac(a2-6)Gal(b1-4)GlcNAc(b1-2)Man
# Outline: as §1
# [4] = biological target: Neu5Ac(a2-6)Gal(b1-4)GlcNAc(b1-2)Man(a1-3)Man(b1-4)GlcNAc(b1-4)GlcNAc
# Outline: as §1
# [5] = biological target: Neu5Ac(a2-6)Gal(b1-4)GlcNAc(b1-2)Man(a1-3)[Gal(b1-4)GlcNAc(b1-2)Man(a1-6)]Man(b1-4)GlcNAc(b1-4)GlcNAc
# Outline: as §1
# [6] = biological target: Neu5Ac(a2-6)Gal(b1-4)GlcNAc(b1-2)Man(a1-3)[GlcNAc(b1-2)Man(a1-6)]Man(b1-4)GlcNAc(b1-4)GlcNAc
# Outline: as §1
# [7] = biological target: Neu5Ac(a2-6)Gal(b1-4)GlcNAc(b1-2)Man(a1-3)[GlcNAc(b1-4)][Neu5Ac(a2-6)Gal(b1-4)GlcNAc(b1-2)Man(a1-6)]Man(b1-4)GlcNAc(b1-4)GlcNAc
# Outline: as §1
# [8] = biological target: Neu5Ac(a2-6)Gal(b1-4)GlcNAc(b1-2)Man(a1-3)[Man(a1-6)]Man(b1-4)GlcNAc(b1-4)GlcNAc
# Outline: as §1
# [9] = biological target: Neu5Ac(a2-6)Gal(b1-4)GlcNAc(b1-2)Man(a1-3)[Neu5Ac(a2-3)Gal(b1-4)GlcNAc(b1-2)Man(a1-6)]Man(b1-4)GlcNAc(b1-4)GlcNAc
# Outline: as §1
# [10] = biological target: Neu5Ac(a2-6)Gal(b1-4)GlcNAc(b1-2)Man(a1-3)[Neu5Ac(a2-6)Gal(b1-4)GlcNAc(b1-2)Man(a1-6)]Man(b1-4)GlcNAc(b1-4)GlcNAc
# Outline: as §1
# [11] = biological target: Neu5Ac(a2-6)Gal(b1-4)GlcNAc(b1-2)Man(a1-3)[Neu5Ac(a2-6)Gal(b1-4)GlcNAc(b1-2)Man(a1-6)]Man(b1-4)GlcNAc(b1-4)[Fuc(a1-6)]GlcNAc
# Outline: as §1
# [12] = biological target: Neu5Ac(a2-6)Gal(b1-4)GlcNAc(b1-2)Man(a1-6)Man(b1-4)GlcNAc(b1-4)GlcNAc
# Outline: as §1
# [13] = biological target: Neu5Ac(a2-6)Gal(b1-4)GlcNAc(b1-2)Man(a1-6)[Gal(b1-4)GlcNAc(b1-2)Man(a1-3)]Man(b1-4)GlcNAc(b1-4)GlcNAc
# Outline: as §1
# [14] = biological target: Neu5Ac(a2-6)Gal(b1-4)GlcNAc(b1-2)Man(a1-6)[GlcNAc(b1-2)Man(a1-3)]Man(b1-4)GlcNAc(b1-4)GlcNAc
# Outline: as §1
# [15] = biological target: Neu5Ac(a2-6)Gal(b1-4)GlcNAc(b1-2)Man(a1-6)[Man(a1-3)]Man(b1-4)GlcNAc(b1-4)GlcNAc
# Outline: as §1
# [16] = biological target: Neu5Ac(a2-6)Gal(b1-4)GlcNAc(b1-2)[Neu5Ac(a2-6)Gal(b1-4)GlcNAc(b1-4)]Man(a1-3)[GlcNAc(b1-4)][Neu5Ac(a2-6)Gal(b1-4)GlcNAc(b1-2)[Neu5Ac(a2-6)Gal(b1-4)GlcNAc(b1-6)]Man(a1-6)]Man(b1-4)GlcNAc(b1-4)GlcNAc
# Outline: as §1
# [17] = biological target: Neu5Ac(a2-6)Gal(b1-4)GlcNAc(b1-2)[Neu5Ac(a2-6)Gal(b1-4)GlcNAc(b1-4)]Man(a1-3)[GlcNAc(b1-4)][Neu5Ac(a2-6)Gal(b1-4)GlcNAc(b1-4)Man(a1-6)]Man(b1-4)GlcNAc(b1-4)GlcNAc
# Outline: as §1
# [18] = biological target: Neu5Ac(a2-6)Gal(b1-4)GlcNAc(b1-2)[Neu5Ac(a2-6)Gal(b1-4)GlcNAc(b1-6)]Man(a1-6)[Neu5Ac(a2-6)Gal(b1-4)GlcNAc(b1-2)Man(a1-3)][GlcNAc(b1-4)]Man(b1-4)GlcNAc(b1-4)GlcNAc
# Outline: as §1
# [19] = biological target: Neu5Ac(a2-6)Gal(b1-4)GlcNAc(b1-3)Gal(b1-3)GlcNAc
# Outline: as §1
# [20] = biological target: Neu5Ac(a2-6)Gal(b1-4)GlcNAc(b1-3)Gal(b1-4)GlcNAc
# Outline: as §1
# [21] = biological target: Neu5Ac(a2-6)Gal(b1-4)GlcNAc(b1-3)Gal(b1-4)GlcNAc(b1-2)Man(a1-3)[Neu5Ac(a2-6)Gal(b1-4)GlcNAc(b1-3)Gal(b1-4)GlcNAc(b1-2)Man(a1-6)]GalNAc
# Outline: as §1
# [22] = biological target: Neu5Ac(a2-6)Gal(b1-4)GlcNAc(b1-3)Gal(b1-4)GlcNAc(b1-3)Gal(b1-4)GlcNAc
# Outline: as §1
# [23] = biological target: Neu5Ac(a2-6)Gal(b1-4)GlcNAc(b1-3)Gal(b1-4)GlcNAc(b1-3)Gal(b1-4)GlcNAc(b1-2)Man(a1-3)[Neu5Ac(a2-6)Gal(b1-4)GlcNAc(b1-3)Gal(b1-4)GlcNAc(b1-3)Gal(b1-4)GlcNAc(b1-2)Man(a1-6)]GalNAc
# Outline: as §1
# [24] = biological target: Neu5Ac(a2-6)Gal(b1-4)GlcNAc(b1-3)Gal(b1-4)GlcNAc(b1-3)GalNAc
# Outline: as §1
# [25] = biological target: Neu5Ac(a2-6)Gal(b1-4)GlcNAc(b1-3)Gal(b1-4)GlcNAc(b1-3)[Neu5Ac(a2-6)Gal(b1-4)GlcNAc(b1-3)Gal(b1-4)GlcNAc(b1-6)]GalNAc
# Outline: as §1
# [26] = biological target: Neu5Ac(a2-6)Gal(b1-4)GlcNAc(b1-3)Gal(b1-4)GlcNAc(b1-6)[Gal(b1-3)]GalNAc
# Outline: as §1
# [27] = biological target: Neu5Ac(a2-6)Gal(b1-4)GlcNAc(b1-3)Gal(b1-4)[Fuc(a1-3)]GlcNAc(b1-3)Gal(b1-4)[Fuc(a1-3)]GlcNAc
# Outline: as §1
# [28] = biological target: Neu5Ac(a2-6)Gal(b1-4)GlcNAc(b1-3)GalNAc
# Outline: as §1
# [29] = biological target: Neu5Ac(a2-6)Gal(b1-4)GlcNAc(b1-3)[Neu5Ac(a2-6)Gal(b1-4)GlcNAc(b1-6)]GalNAc
# Outline: as §1
# [30] = biological target: Neu5Ac(a2-6)Gal(b1-4)GlcNAc(b1-6)GalNAc
# Outline: as §1
# [31] = biological target: Neu5Ac(a2-6)Gal(b1-4)GlcNAc(b1-6)[Gal(b1-3)GlcNAc(b1-3)]Gal(b1-4)Glc
# Outline: as §1
# [32] = biological target: Neu5Ac(a2-6)Gal(b1-4)GlcNAc(b1-6)[Gal(b1-3)]GalNAc
# Outline: as §1
# [33] = biological target: Neu5Ac(a2-6)Gal(b1-4)GlcNAc6S
# Outline: as §1
# Neu5Ac(a2-6)GalNAc = biological target: Neu5Ac(a2-6)GalNAc
# Outline: as §1
# [34] = biological target: Neu5Ac(a2-6)GalNAc(b1-4)GlcNAc
# Outline: as §1
# [35] = biological target: Neu5Ac(a2-6)GalNAc(b1-4)GlcNAc6S
# Outline: as §1
binder,measurement,setting,value
B1,glycan array binding signal (z-score),Neu5Ac(a2-6)Gal,-0.172
same,glycan array binding signal (z-score),[1],-0.179
same,glycan array binding signal (z-score),Neu5Ac(a2-6)Gal(b1-4)Glc,-0.177
same,glycan array binding signal (z-score),[2],-0.174
same,glycan array binding signal (z-score),[3],-0.178
same,glycan array binding signal (z-score),[4],-0.101
same,glycan array binding signal (z-score),[5],-0.175
same,glycan array binding signal (z-score),[6],-0.176
same,glycan array binding signal (z-score),[7],-0.176
same,glycan array binding signal (z-score),[8],-0.181
same,glycan array binding signal (z-score),[9],-0.176
same,glycan array binding signal (z-score),[10],-0.173
same,glycan array binding signal (z-score),[11],-0.16
same,glycan array binding signal (z-score),[12],-0.173
same,glycan array binding signal (z-score),[13],-0.172
same,glycan array binding signal (z-score),[14],-0.173
same,glycan array binding signal (z-score),[15],-0.173
same,glycan array binding signal (z-score),[16],-0.197
same,glycan array binding signal (z-score),[17],-0.188
same,glycan array binding signal (z-score),[18],-0.178
same,glycan array binding signal (z-score),[19],-0.175
same,glycan array binding signal (z-score),[20],-0.181
same,glycan array binding signal (z-score),[21],-0.171
same,glycan array binding signal (z-score),[22],-0.176
same,glycan array binding signal (z-score),[23],-0.159
same,glycan array binding signal (z-score),[24],-0.252
same,glycan array binding signal (z-score),[25],-0.172
same,glycan array binding signal (z-score),[26],-0.166
same,glycan array binding signal (z-score),[27],-0.166
same,glycan array binding signal (z-score),[28],-0.169
same,glycan array binding signal (z-score),[29],-0.168
same,glycan array binding signal (z-score),[30],-0.171
same,glycan array binding signal (z-score),[31],-0.178
same,glycan array binding signal (z-score),[32],-0.176
same,glycan array binding signal (z-score),[33],-0.177
same,glycan array binding signal (z-score),Neu5Ac(a2-6)GalNAc,0.012
same,glycan array binding signal (z-score),[34],-0.159
same,glycan array binding signal (z-score),[35],-0.176

# Source: the supplement of paper PMC8728848
